Molecules are shown by their SMILES. This is one part of the list. Repeats are few or missing, and single values can be far off.

Test in all cases: cell count relative to DMSO control; melanoma cells; higher = more viable cells
Holding throughout (conditions): library dose: low library concentration; 72 h

The subject of experiment [1] is WM1745.
Experiment [2] has as its system WM3526.
Experiment [3] has as its system WM3619.
Experiment [4] relates to WM451Lu.
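Also: cell number obtained by counting DAPI-stained nuclei in high-throughput microscope images with image analysis software, screen run in 1,536-well plates.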

Take `COC(=O)c1sccc1S(=O)(=O)Nc1ccc(Nc2ccccc2)cc1OC` + CCN(CC)CCCCNc1ncc2cc(-c3cc(OC)cc(OC)c3)c(NC(=O)NC(C)(C)C)nc2n1 [PD173074] (first compound 1 µM, partner dose 0.1 µM): the cell count in experiment [1] was 87.8%; in experiment [2], 84.7%; in experiment [3], 106%; in experiment [4], 88.3%.

Take `COc1ccc(COc2ccc(Cc3cnc(N)nc3N)cc2OC)cc1` + Cc1cc([N+](=O)[O-])ccc1NS(=O)(=O)c1cc(Cl)ccc1Cl [FH535] (first compound 1 µM, partner dose 1 µM): the cell count in experiment [1] came out at 63.6%; in experiment [2], 100%; in experiment [3], 127%; in experiment [4], 111%.

As for `Cc1cc([N+](=O)[O-])ccc1NS(=O)(=O)c1cc(Cl)ccc1Cl` + CC(C)CCN1c2nc(Nc3cc(F)c(O)c(F)c3)ncc2N(C)C(=O)C1C [BID1870] (first compound 1 µM, partner dose 0.2 µM), the cell count in experiment [1] is 122%; in experiment [2] it was 113%; in experiment [3] it was 97.6%; in experiment [4], 113%.

For the compound `O=S(=O)(c1ccccc1)N(CC(F)(F)F)c1ccc(C(O)(C(F)(F)F)C(F)(F)F)cc1` + O=c1cc(-c2cccc3c2Sc2ccccc2S3)oc(N2CCOCC2)c1 [KU55933] (first compound 1.4 µM, partner dose 1 µM), the cell count came out at 114% in experiment [1], 90.7% in experiment [2], 135% in experiment [3] and 97.1% in experiment [4].

For the compound `CCN(CC)CCCCNc1ncc2cc(-c3cc(OC)cc(OC)c3)c(NC(=O)NC(C)(C)C)nc2n1` + O=S(=O)(c1ccccc1)N(CC(F)(F)F)c1ccc(C(O)(C(F)(F)F)C(F)(F)F)cc1 [T0901317] (first compound 0.1 µM, partner dose 1.4 µM), the cell count came out at 85.7% in experiment [1], 105% in experiment [2], 130% in experiment [3] and 92% in experiment [4].

The record behind these values is the supplement of paper PMC4604168 (melanoma cell lines).
